# Measured values: PubChem BioAssay AID1347417 (National Center for Advancing Translational Sciences (NCATS), 2020)
# In all, about 120,000 compounds went through this assay and about 5,300 (4.4%) were called active. Inconclusive results, whose numbers are uncertain, are shown with a selection of clear calls. The call rests on the fitted dose curve; in most records, active means well fitted inhibition curve with a large enough effect; inconclusive means small, poorly fitted or top-dose-only effect; inactive means no such curve, though single readings can be large or run the other way. Potencies of inconclusive entries are doubtful fits and often do not repeat.
# Test: qHTS Primary assay for Inhibitors of Plasmodium falciparum Dd2 growth in vitro; further: nearly all actives have a fitted effect of over 65% in size
# Details: P. falciparum Dd2 growth, SYBR Green, 72 h; series mostly up to 28.9 µM
# Procedure, shortened: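 Readout: SYBR Green fluorescence, 485 nm excitation, 535 nm emission, after ~16 h lysis at 37C. Before that, Dd2-infected red cells (2.5% hematocrit) grew 72 h with compound, 29 uM top final concentration.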
# Potency means the concentration at half of the fitted maximal effect; tags describe the fitted curve by direction and shape.
SMILES,Potency,outcome
CN(Cc1ccccc1)CC1(O)CCCN(CCCc2ccccc2)C1=O (configuration not stated),"inconclusive: 7.94 µM [inhibitor, partial curve, poor fit]",
COc1ccc(C(=O)/C=C/c2cn(CC(O)CN3CCCCCC3)c3ccccc23)cc1OC (configuration not stated),"inconclusive: 20 µM [inhibitor, single point]",
O=C(COc1ccccc1)NCCC1CCN(C(=O)Nc2cc(F)cc(F)c2)CC1,"inconclusive: 10 µM [inhibitor, single point]",
Cc1cccc(OCCc2noc(C3CNC3)n2)c1,"inconclusive: 7.08 µM [inhibitor, partial curve, poor fit]",
COCC(=O)N[C@H]1CC[C@]2(C)CCC([C@H](C)C(=O)NCc3ccccc3OC)[C@H](O)[C@H]2[C@@H]1C (some centres not stated),"inconclusive: 8.91 µM [inhibitor, partial curve, poor fit]",
Cn1c(NCc2cccc(Cl)c2)nc2ccccc21,"inconclusive: 20 µM [inhibitor, single point]",
N#Cc1cccc(CN2C[C@@H](CO)[C@H](c3ccccn3)C2)c1,"inconclusive: 17.8 µM [inhibitor, single point]",
c1ccc(-c2ccnc(NCC3OCCc4ccccc43)n2)nc1 (configuration not stated),"inconclusive: 20 µM [inhibitor, single point]",
CCc1cccc(NC(=O)C2CCN(S(=O)(=O)c3ccc(Br)s3)CC2)c1,"inconclusive: 17.8 µM [inhibitor, single point]",
O=C1CCN(Cc2ccncc2)CCCC(C(=O)Nc2ccccc2CCc2ccncc2)CCN1 (configuration not stated),"inconclusive: 11.2 µM [inhibitor, partial curve]",
Cc1cccc(C)c1Nc1sc(C(=O)c2ccccc2)c(N)c1S(=O)(=O)c1ccccc1,inactive,
COc1cccc(CN2CCCC(COc3ccccc3C(=O)N3CCC(C)CC3)C2)c1 (configuration not stated),"inconclusive: 11.2 µM [inhibitor, partial curve]",
CC1CCCCN1CCNC(=O)c1ccc(Cn2c(SCc3ccccc3)nc3cccnc32)cc1 (configuration not stated),active: 5.62 µM,
O=C(NCCCc1ccccc1)C1CCCN(c2nc3ncccc3o2)C1 (configuration not stated),"inconclusive: 17.8 µM [inhibitor, single point]",
C=Cc1ccc(CN2C(=O)N(c3ccc(C)c(C)c3)S(=O)(=O)c3ccccc32)cc1,"inconclusive: 17.8 µM [inhibitor, single point]",
CC1(c2ccccc2)N(Cc2ccccc2C#N)C(=O)OC12CCN(C(=O)CN1CCOCC1)CC2 (configuration not stated),inactive,
Cc1ccc(C(=O)N2CCCN(c3cc(-c4ccc(Cl)cc4)[nH]n3)CC2)cc1C,"inconclusive: 3.98 µM [inhibitor, single point]",
C=CCCC(CN1CCCC1)Oc1ccc(C(=O)N2CCCC2)cn1 (configuration not stated),"inconclusive: 2 µM [inhibitor, full curve, poor fit]",
COc1ccc2[nH]cc(CCNC(=O)C3CCCCC(=O)N3Cc3ccccc3)c2c1 (configuration not stated),inactive,
CCOc1cc(C(=O)NC2CCN(c3cc(-c4ccccc4)[nH]n3)C2)cc(OCC)c1OCC (configuration not stated),active: 5.01 µM,
COc1ccc(CCNC(=O)c2ccc3c(c2)nc(C)n3-c2ccc(Br)cc2)cc1OC,inactive,
CC1=C[C@@H](CC#N)[C@H](C(C)C)C[C@H]1CC(=O)N1CCN(c2cnccn2)CC1,active: 7.08 µM,
Cc1ccc(C(C(=O)N2CC(n3nc(C)cc3C)C2)N(C)C)cc1 (configuration not stated),"inconclusive: 8.91 µM [inhibitor, single point]",

SMILES,Potency,outcome
COCCN1Cc2[nH]nc(-c3cccc(OC)c3)c2CC1=O,inactive,
CC(C)NC(=O)NC[C@H]1C[C@@H]2CCN1C[C@@H]2c1cc(-c2ccc(F)cc2)nn1C,"inconclusive: 10 µM [inhibitor, partial curve, poor fit]",
CN(C)CCCC(=O)N1CCC2(CC1)CC(N[S+](C)(=O)[O-])c1ccccc12 (configuration not stated),inactive,
COC(=O)[C@@H]1Cc2c([nH]c3ccccc23)[C@H]2C[C@@H](NCc3cccnc3)C[C@@H](c3ccc(F)cc3)N21,"inconclusive: 7.08 µM [inhibitor, single point]",
COc1cccc(-c2ccc(CN3C4CCC3CN(C(=O)Nc3ccccc3F)C4)cc2)c1,inactive,
COc1ccccc1-c1nc(C(=O)NC2CC2)n2ccccc12,inactive,
COC(=O)c1ccc(NC(=O)C(C)Sc2nc(=O)cc(N)n2CCc2ccccc2)cc1 (configuration not stated),active: 11.2 µM,
Cc1ccc(CNC(=O)N2CCC(c3noc(-c4ccccc4)n3)C2)cc1 (configuration not stated),,inactive [at 5.79 µM]
CC1(C)C[C@H](NC(=O)c2ccccc2)[C@@]2(CCC(=O)NCc3cccnc3)CC[C@](C)(O)C[C@@H]12,inactive,
O=C(c1ccc2c(c1)OCO2)N1CCC2(CC1)NC(=O)N(Cc1ccc(F)cc1)C2=O,inactive,
CCOc1ccc(C(=O)Nc2ccc(-c3cc4ccccc4oc3=O)cc2)cc1Br,inactive,
CCC(c1cccs1)N1C(=O)[C@H]2CN(S(=O)(=O)c3cccnc3)C[C@H]2C1=O (some centres not stated),"inconclusive: 17.8 µM [inhibitor, single point]",
COc1ccccc1Cn1cc(C(=O)c2ccccc2)c(=O)c2cc(OC)c(OC)cc21,active: 2.51 µM,
CCOC(=O)C1=C(C)N=C2SC=C(CC(=O)N3CCC(C)CC3)N2C1c1cccc(OC)c1 (configuration not stated),inactive,
CS(=O)(=O)N1CCC(OC2CCN(C(=O)Nc3cccc(Cl)c3F)CC2)CC1,inactive,
Cc1ccc(Cn2c(CO)cnc2SCc2ccc(F)cc2)cc1,inactive,
Fc1ccc(-c2ccc3ncc(Nc4cc(F)cc(N5CCOCC5)c4)n3n2)cc1,"inconclusive: 5.62 µM [inhibitor, single point]",
COc1ccc(N2CC(C(=O)NCc3cccc(Cl)c3)NC2=O)cc1 (configuration not stated),inactive,
COc1ccc(OC2CN([S+](=O)([O-])c3cccc(C(F)(F)F)c3)C2)cc1,inactive,
O=c1cc(-c2ccccc2Cl)nc(-c2ccc(CN3CCC[C@@H](O)C3)cc2)[nH]1,"inconclusive: 11.2 µM [inhibitor, single point]",
COc1ccc(CN(Cc2ccc(OC)cc2)[C@@H]2CO[C@H](CNC(=O)CC(C)(C)C)[C@H]2O)cc1,"inconclusive: 11.2 µM [inhibitor, partial curve, poor fit]",
Cc1cccc(NC(=O)CSc2nc3c([nH]c4ccccc43)c(=O)n2-c2cc(C)cc(C)c2)c1,"inconclusive: 17.8 µM [inhibitor, single point]",
CC1CCCCN1C(=O)CSc1nc(-c2ccccc2)no1 (configuration not stated),active: 10 µM,

SMILES,Potency,outcome
O=c1c2nc(-c3ccccc3F)ccc2ncn1Cc1ccccn1,"inconclusive: 31.6 µM [inhibitor, single point]",
Cc1nccn1C1(C(=O)O)CCN(Cc2ccccc2F)CC1,inactive,
CCN(CC)CCCNC(=O)c1cn(CC)c2ccc(S(=O)(=O)N3CCC(C)CC3)cc2c1=O,"inconclusive: 10 µM [inhibitor, single point]",
COc1ccc(-c2cc3c(ccn3Cc3ccncc3)c(N3CCOCC3)n2)cn1,"inconclusive: 7.08 µM [inhibitor, partial curve, poor fit]",
Cc1ccc(NC(=O)CN2C(=O)C(c3ccccc3)=NC23CCCCC3)cc1C,"inconclusive: 17.8 µM [inhibitor, single point]",
Fc1ccc(-c2cnc3n2C[C@H](CN(Cc2ccccc2)Cc2ccccc2)OC3)cc1,active: 6.31 µM,
CSc1cccc(-n2nnc(-c3nsc(NC(=O)c4cccs4)n3)c2C)c1,"inconclusive: 20 µM [inhibitor, single point]",
CC(C)(O)c1cn(C2CCN(C(=O)c3ccccc3F)CC2)nn1,inactive,
Cc1ccc(C(=O)N[C@@H]2CN(C3CCOCC3)C[C@H]2CN(C)C)cc1F,inactive,
CN1CCC2(CCC1=O)CN(CC(=O)NCc1ccccn1)CCN2C (configuration not stated),inactive,
CCc1ccc(NC(=O)C2CCCN(S(=O)(=O)c3ccc4c(c3)oc(=O)n4C)C2)cc1 (configuration not stated),"inconclusive: 8.91 µM [inhibitor, partial curve, poor fit]",
Cc1ccc(C(=O)NCC(c2ccc(Cl)cc2)N2CCCCC2)cc1 (configuration not stated),"inconclusive: 11.2 µM [inhibitor, partial curve, poor fit]",
CSCc1ccc(C(=O)N2CC[C@@H]3[C@@H](CCC(=O)N3CCN)C2)o1,inactive,
Cc1nc(CN2C[C@H](C(=O)Nc3cccc(F)c3)C[C@@H]2c2ccc(F)cc2)cs1,"inconclusive: 5.62 µM [inhibitor, single point]",
O=C(NCc1c(-n2cccc2)sc2c1CCCC2)Nc1cccc(C(F)(F)F)c1,"inconclusive: 17.8 µM [inhibitor, single point]",
Cn1c(C(=O)Nc2ccc(N3CCOCC3)cc2)cc2c1CCN(Cc1ccccc1)C2,"inconclusive: 7.94 µM [inhibitor, partial curve, poor fit]",
COc1ccc(C(=O)N[C@@H]2CCC[C@@H]2C(=O)NCCc2cccs2)cc1,"inconclusive: 20 µM [inhibitor, single point]",
CCN1C(=O)C2(CCN(S(=O)(=O)c3cc(Cl)ccc3OC)CC2)c2ccccc21,"inconclusive: 4.47 µM [inhibitor, partial curve, poor fit]",
CCC1CCCCN1CCCNC(=O)c1cn(C)c2ccc(S(=O)(=O)N(C)C3CCCCC3)cc2c1=O (configuration not stated),"inconclusive: 1.58 µM [inhibitor, full curve]",
Cc1noc([C@@H]2CN(C(=O)c3occc3C)C[C@H]2CO)n1,inactive,
CCS(=O)(=O)Nc1ccc(C2(C(=O)Nc3cccc(F)c3C)CCCCC2)cc1,active: 11.2 µM,
